Reference: the supplement of paper PMC12217912
This is one part of the list. The full chains were built here from the parent and the listed change. Inactive controls read about 0.05.

B1: TEV protease; numbered along this chain (parent)
chain: MGESLFKGPRDYNPISSSICHLTNESDGHTTSLYGIGFGPFIITNKHLFRRNNGTLVVQSLHGVFKVKDTTTLQQHLVDGRDMIIIRMPKDFPPFPQKLKFREPQREERICLVTTNFQTKSMSSMVSDTSCTFPSGDGIFWKHWIQTKDGQCGSPLVSTRDGFIVGIHSASNFTNTNNYFTSVPKNFMELLTNQEAQQWVSGWRLNADSVLWGGHKVFMVKPEEPFQPVKEATQL

Variants of: B1
Test: raw area under fraction-flipped curve 0-4 h after induction (AUC4h, not background-subtracted), DNA-recorder readout of cleavage of the substrate (dimensionless); higher = more cleavage of the substrate by the protease variant
Settings: temperature: 34 °C; time window: 0-4 h after rhamnose induction
Method: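 In vivo DNA recorder in E. coli TOP10(DE3) ΔrhaA at 34 °C. Each TEVp single-site mutant (parent TEVp 0) is paired with a single-site variant of the 7-mer TEVs (canonical ENLYFQ|S). The substrate sits between flexible linkers in a Bxb1-sfGFP-TEVs-SsrA fusion, so cleavage stabilises Bxb1 and speeds flipping of a recombination array, read by NGS. The value is the raw area under the fraction-flipped curve over 0-4 h after rhamnose induction (AUC4h), with ≥20 reads per time point. It is not background-subtracted; inactive controls average about 0.047.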
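Note: Bxb1 expression induced with 0.2% (w/v) L-rhamnose at OD600 near 0.5, cultures sampled hourly, flipped fraction per protease–substrate barcode pair counted by paired-end Illumina sequencing.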

Row | Variant | area with substrate EALYFQS | area with substrate ECLYFQS | area with substrate EDLYFQS | area with substrate EELYFQS | area with substrate EFLYFQS | area with substrate EHLYFQS | area with substrate EILYFQS | area with substrate EKLYFQS | area with substrate ELLYFQS | area with substrate EMLYFQS | area with substrate EPLYFQS | area with substrate EQLYFQS | area with substrate ERLYFQS | area with substrate ESLYFQS | area with substrate ETLYFQS | area with substrate EVLYFQS | area with substrate EWLYFQS | area with substrate EYLYFQS | area with substrate EGLYFQS
1 | P40C | 0.102 | 0.112 | 0.129 | 0.141 | 0.115 | 0.0957 | 0.0893 | 0.0999 | 0.113 | 0.101 | 0.118 | 0.129 | 0.0985 | 0.112 | 0.111 | 0.0897 | 0.0971 | 0.11 | –
2 | D27P | 0.0574 | 0.0039 | 0.095 | 0.11 | 0.0729 | 0.11 | – | 0.091 | 0.0926 | 0.0904 | 0.11 | 0.0831 | 0.0951 | 0.103 | – | – | 0.0821 | – | –
3 | E25K | 0.172 | 0.115 | 0.122 | 0.0646 | 0.0664 | – | 0.0833 | 0.0979 | 0.0852 | 0.103 | 0.0686 | 0.0308 | 0.0784 | 0.106 | – | 0.0895 | 0.0786 | 0.0802 | 0.0833
4 | G150E | 0.0578 | 0.0537 | 0.062 | 0.0649 | 0.0682 | 0.0614 | 0.0566 | 0.064 | 0.0619 | 0.0503 | 0.0679 | 0.0545 | 0.0503 | 0.0544 | 0.0602 | 0.0623 | 0.0648 | – | 0.0489
5 | T31E | 0.0937 | 0.108 | 0.0999 | 0.11 | 0.0969 | 0.0875 | 0.0959 | – | 0.105 | – | 0.0867 | 0.0785 | 0.0813 | 0.0898 | 0.0992 | 0.0896 | – | 0.0939 | –
6 | K216G | 0.0822 | 0.0631 | 0.0598 | – | 0.0643 | 0.0552 | 0.0325 | 0.0598 | 0.0585 | 0.0776 | 0.0751 | 0.0686 | 0.0654 | 0.0785 | – | 0.0694 | – | 0.0757 | –
7 | L56M | 0.139 | 0.0909 | – | – | 0.107 | – | 0.0867 | 0.13 | 0.0864 | 0.111 | – | – | 0.106 | 0.103 | – | 0.101 | – | 0.103 | –
8 | G162C | 0.101 | 0.0976 | 0.176 | 0.114 | 0.0941 | 0.099 | 0.0827 | – | 0.0676 | 0.132 | – | 0.0972 | 0.101 | 0.104 | 0.0917 | 0.09 | 0.0822 | 0.104 | –
9 | Q197W | 0.0841 | 0.102 | 0.095 | 0.108 | 0.1 | – | 0.105 | 0.0933 | 0.0649 | 0.0744 | 0.0715 | 0.096 | 0.0894 | 0.0814 | – | 0.0906 | – | 0.0844 | 0.0892
10 | G54I | 0.0607 | 0.0745 | 0.0757 | 0.0499 | 0.0657 | – | 0.0556 | – | 0.061 | 0.0628 | – | 0.0659 | – | 0.072 | – | 0.0688 | 0.065 | – | 0.0595
11 | P14I | 0.213 | 0.107 | 0.107 | 0.0919 | 0.1 | 0.0903 | 0.0855 | 0.089 | – | 0.0867 | – | 0.0916 | 0.111 | 0.0929 | – | 0.082 | 0.0736 | 0.125 | 0.0864
12 | A232C | 0.119 | 0.0794 | – | 0.109 | – | – | 0.0893 | – | – | 0.144 | – | 0.0659 | – | 0.0944 | – | – | – | – | 0.0655
13 | R204K | 0.127 | 0.139 | 0.187 | 0.125 | 0.112 | 0.0825 | 0.0841 | 0.103 | – | 0.121 | 0.139 | 0.147 | 0.125 | 0.112 | 0.119 | 0.101 | 0.0677 | – | 0.0974
14 | R204H | 0.126 | 0.126 | 0.129 | 0.112 | 0.0809 | 0.1 | 0.0978 | – | – | – | 0.11 | 0.113 | 0.11 | 0.11 | 0.109 | 0.0819 | 0.116 | 0.108 | –
15 | unchanged | 0.121 | 0.103 | 0.127 | 0.12 | 0.108 | 0.111 | 0.0963 | 0.107 | 0.0926 | 0.113 | 0.119 | 0.119 | 0.104 | 0.105 | 0.11 | 0.0984 | 0.0967 | 0.108 | 0.101
16 | G80N | 0.105 | 0.0895 | – | – | 0.0991 | – | 0.0966 | 0.101 | 0.119 | – | – | 0.11 | 0.156 | 0.117 | 0.176 | 0.102 | 0.155 | – | 0.0973
17 | M88G | 0.0759 | – | 0.0852 | – | – | 0.0666 | 0.0655 | 0.071 | – | 0.0642 | – | – | 0.0808 | 0.0732 | 0.119 | 0.0802 | 0.066 | – | –
18 | L33N | 0.0888 | 0.0987 | 0.112 | 0.104 | 0.0998 | 0.133 | – | 0.124 | 0.0933 | 0.13 | 0.0934 | 0.113 | 0.0945 | 0.0994 | 0.135 | 0.102 | 0.0882 | – | 0.0848
19 | S16D | 0.117 | 0.0901 | 0.104 | – | 0.101 | 0.099 | 0.0736 | 0.0909 | 0.084 | 0.104 | 0.121 | 0.0933 | 0.0424 | 0.0974 | 0.117 | 0.14 | 0.0762 | – | 0.1
20 | S4D | 0.152 | 0.126 | 0.147 | 0.154 | 0.121 | 0.0615 | 0.108 | 0.116 | 0.209 | 0.114 | 0.173 | 0.156 | 0.126 | 0.122 | – | 0.121 | 0.11 | – | 0.133
21 | T72H | 0.113 | 0.0874 | 0.111 | – | – | 0.0959 | 0.0635 | 0.107 | – | – | 0.106 | – | – | 0.0876 | – | 0.0952 | 0.0873 | 0.0666 | –
22 | T72S | 0.134 | 0.098 | 0.11 | 0.101 | – | – | – | – | – | 0.103 | – | 0.092 | 0.0952 | 0.0924 | 0.109 | 0.0775 | – | – | –
23 | E103G | 0.0977 | 0.0897 | 0.126 | 0.115 | 0.0735 | – | 0.0816 | 0.0829 | 0.0702 | 0.0896 | 0.0965 | 0.121 | 0.0975 | 0.0947 | 0.0896 | 0.0836 | – | – | 0.0731
